Measurements: the supplement of paper PMC11741623
This is one part of the list. Interaction screen of human proteins with wild-type SARS-CoV-2 proteins by split-DHFR complementation in yeast, 1 µg/mL methotrexate. Value = fitness of the pair (three or more lineages) minus that of the viral protein without a human partner, on a scale set by negative (0) and fused positive (1) controls, mean of up to three cultures; higher = more likely to interact. Active = false discovery rate below 0.05 (one-sided t-test) in at least one culture. Nearly all pairs are not hits, and differences among them are mostly noise (correlation between cultures about 0.3); most hits were seen in one culture only. Human sequences are the Swiss-Prot entries looked up by gene name; the clone may be another isoform. NSP2 values were corrected by the authors for a growth advantage. Listed are human proteins with a hit and a random twelfth of the others.

Key:
Assay in all cases: yeast fitness gain over the viral ORF with no human partner (scaled fitness); higher = more likely to interact
[1] = target: SARS-CoV-2 E
Experimental: (§1)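 Split mouse DHFR complementation in pooled diploid yeast: human ORFeome clones carry one fragment and viral ORFs the other; barcoded lineages compete in 1 µg/mL methotrexate and fitness is read by barcode sequencing in up to three cultures.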

[2] = target: SARS-CoV-2 M
Experimental: as §1

[3] = target: SARS-CoV-2 N
Experimental: as §1

[4] = target: SARS-CoV-2 NSP1
Experimental: as §1

[5] = target: SARS-CoV-2 NSP10
Experimental: as §1

[6] = target: SARS-CoV-2 NSP12
Experimental: as §1

[7] = target: SARS-CoV-2 NSP13
Experimental: as §1

[8] = target: SARS-CoV-2 NSP14
Experimental: as §1

[9] = target: SARS-CoV-2 NSP15
Experimental: as §1

[10] = target: SARS-CoV-2 NSP16
Experimental: as §1

[11] = target: SARS-CoV-2 NSP2
Experimental: as §1

[12] = target: SARS-CoV-2 NSP4
Experimental: as §1

[13] = target: SARS-CoV-2 NSP5
Experimental: as §1

[14] = target: SARS-CoV-2 NSP6
Experimental: as §1

[15] = target: SARS-CoV-2 NSP7
Experimental: as §1

[16] = target: SARS-CoV-2 NSP8
Experimental: as §1

[17] = target: SARS-CoV-2 NSP9
Experimental: as §1

[18] = target: SARS-CoV-2 ORF10
Experimental: as §1

[19] = target: SARS-CoV-2 ORF3A
Experimental: as §1

[20] = target: SARS-CoV-2 ORF3B
Experimental: as §1

[21] = target: SARS-CoV-2 ORF6
Experimental: as §1

[22] = target: SARS-CoV-2 ORF7A
Experimental: as §1

[23] = target: SARS-CoV-2 ORF7B
Experimental: as §1

[24] = target: SARS-CoV-2 ORF8
Experimental: as §1

[25] = target: SARS-CoV-2 ORF9B
Experimental: as §1

[26] = target: SARS-CoV-2 ORF9Bwu (the 73-codon ORF)
Experimental: as §1

[27] = target: SARS-CoV-2 S
Experimental: as §1

Measured: yeast fitness gain

B1: PDIA6, Q15084 (protein)
chain: MALLVLGLVSCTFFLAVNGLYSSSDDVIELTPSNFNREVIQSDSLWLVEFYAPWCGHCQRLTPEWKKAATALKDVVKVGAVDADKHHSLGGQYGVQGFPTIKIFGSNKNRPEDYQGGRTGEAIVDAALSALRQLVKDRLGGRSGGYSSGKQGRSDSSSKKDVIELTDDSFDKNVLDSEDVWMVEFYAPWCGHCKNLEPEWAAAASEVKEQTKGKVKLAAVDATVNQVLASRYGIRGFPTIKIFQKGESPVDYDGGRTRSDIVSRALDLFSDNAPPPELLEIINEDIAKRTCEEHQLCVVAVLPHILDTGAAGRNSYLEVLLKLADKYKKKMWGWLWTEAGAQSELETALGIGGFGYPAMAAINARKMKFALLKGSFSEQGINEFLRELSFGRGSTAPVGGGAFPTIVEREPWDGRDGELPVEDDIDLSDVELDDLGKDEL
inactive: [1] 0.0572 | [2] 0.0411 | [3] 0.046 | [4] 0.0495 | [5] -0.0155 | [6] -0.0243 | [7] 0.0231 | [8] 0.083 | [9] 0.015 | [10] 0.0375 | [11] -0.0538 | [12] 0.0223 | [13] -0.0119 | [14] 0.00099 | [15] 0.01 | [16] 0.0705 | [17] 0.0522 | [18] 0.0252 | [19] 0.0106 | [20] 0.0216 | [21] 0.0199 | [22] 0.0442 | [23] 0.00873 | [24] 0.0268 | [25] 0.0182 | [26] -0.000915 | [27] -0.0667

B2: PPM1B, O75688 (protein)
chain: MGAFLDKPKTEKHNAHGAGNGLRYGLSSMQGWRVEMEDAHTAVVGIPHGLEDWSFFAVYDGHAGSRVANYCSTHLLEHITTNEDFRAAGKSGSALELSVENVKNGIRTGFLKIDEYMRNFSDLRNGMDRSGSTAVGVMISPKHIYFINCGDSRAVLYRNGQVCFSTQDHKPCNPREKERIQNAGGSVMIQRVNGSLAVSRALGDYDYKCVDGKGPTEQLVSPEPEVYEILRAEEDEFIILACDGIWDVMSNEELCEYVKSRLEVSDDLENVCNWVVDTCLHKGSRDNMSIVLVCFSNAPKVSDEAVKKDSELDKHLESRVEEIMEKSGEEGMPDLAHVMRILSAENIPNLPPGGGLAGKRNVIEAVYSRLNPHRESDGASDEAEESGSQGKLVEALRQMRINHRGNYRQLLEEMLTSYRLAKVEGEESPAEPAATATSSNSDAGNPVTMQESHTESESGLAELDSSNEDAGTKMSGEKI
inactive: [1] 0.133 | [2] 0.101 | [5] 0.0577 | [6] 0.0874 | [7] 0.0406 | [8] 0.129 | [9] 0.00511 | [10] 0.00855 | [11] -0.0431 | [12] 0.0972 | [13] -0.0118 | [14] 0.00602 | [15] 0.0177 | [16] 0.0122 | [17] 0.0221 | [18] -0.0427 | [19] -0.00657 | [20] 0.00785 | [21] 0.0138 | [22] -0.0125 | [23] -0.00404 | [24] 0.0275 | [25] 0.0708 | [26] 0.0232 | [27] -0.0447

B3: PPY, P01298 (protein)
chain: MAAARLCLSLLLLSTCVALLLQPLLGAQGAPLEPVYPGDNATPEQMAQYAADLRRYINMLTRPRYGKRHKEDTLAFSEWGSPHAAVPRELSPLDL
inactive: [1] 0.0297 | [2] 0.00459 | [3] -0.0929 | [4] 0.0445 | [5] -0.00811 | [6] 0.0234 | [7] -0.0446 | [8] -0.171 | [9] -0.0347 | [10] -0.0712 | [11] -0.125 | [12] -0.359 | [13] 0.0311 | [14] -0.00138 | [15] -0.0141 | [16] -0.154 | [17] -0.0178 | [18] -0.0877 | [20] -0.00817 | [21] 0.0194 | [22] -0.066 | [23] -0.0668 | [24] 0.0219 | [25] -0.0191 | [26] 0.0552 | [27] 0.0655

B4: RASL10A, Q92737 (protein)
chain: MGGSLRVAVLGAPGVGKTAIIRQFLFGDYPERHRPTDGPRLYRPAVLLDGAVYDLSIRDGDVAGPGSSPGGPEEWPDAKDWSLQDTDAFVLVYDICSPDSFDYVKALRQRIAETRPAGAPEAPILVVGNKRDRQRLRFGPRRALAALVRRGWRCGYLECSAKYNWHVLRLFRELLRCALVRARPAHPALRLQGALHPARCSLM
inactive: [1] 0.0403 | [2] 0.00353 | [3] 0.0867 | [4] 0.0425 | [5] 0.0203 | [6] 0.0176 | [7] 0.0306 | [8] -0.208 | [9] 0.0939 | [10] 0.0271 | [11] -0.128 | [12] 0.0227 | [13] 0.00534 | [14] 0.0472 | [15] 0.0154 | [16] -0.0207 | [17] 0.027 | [18] -0.0158 | [19] 0.0655 | [20] 0.0147 | [21] -0.00665 | [22] 0.0546 | [23] -0.0387 | [24] -0.0362 | [25] -0.0225 | [26] -0.0259 | [27] 0.0403
